From publication PMC4336329 (PLoS ONE, 2015)
About 2,200 (0.71%) of roughly 310,000 compounds showed an effect of 50% or more. The effect is printed as a negative number. This is one part of the list.

The compounds below were run against human ether-à-go-go-related gene (hERG) potassium channel (human, UniProt Q12809) (assay: primary screen, population patch clamp on CHO cells stably expressing hERG).
Sequence of human ether-à-go-go-related gene (hERG) potassium channel (Q12809 whole entry, looked up): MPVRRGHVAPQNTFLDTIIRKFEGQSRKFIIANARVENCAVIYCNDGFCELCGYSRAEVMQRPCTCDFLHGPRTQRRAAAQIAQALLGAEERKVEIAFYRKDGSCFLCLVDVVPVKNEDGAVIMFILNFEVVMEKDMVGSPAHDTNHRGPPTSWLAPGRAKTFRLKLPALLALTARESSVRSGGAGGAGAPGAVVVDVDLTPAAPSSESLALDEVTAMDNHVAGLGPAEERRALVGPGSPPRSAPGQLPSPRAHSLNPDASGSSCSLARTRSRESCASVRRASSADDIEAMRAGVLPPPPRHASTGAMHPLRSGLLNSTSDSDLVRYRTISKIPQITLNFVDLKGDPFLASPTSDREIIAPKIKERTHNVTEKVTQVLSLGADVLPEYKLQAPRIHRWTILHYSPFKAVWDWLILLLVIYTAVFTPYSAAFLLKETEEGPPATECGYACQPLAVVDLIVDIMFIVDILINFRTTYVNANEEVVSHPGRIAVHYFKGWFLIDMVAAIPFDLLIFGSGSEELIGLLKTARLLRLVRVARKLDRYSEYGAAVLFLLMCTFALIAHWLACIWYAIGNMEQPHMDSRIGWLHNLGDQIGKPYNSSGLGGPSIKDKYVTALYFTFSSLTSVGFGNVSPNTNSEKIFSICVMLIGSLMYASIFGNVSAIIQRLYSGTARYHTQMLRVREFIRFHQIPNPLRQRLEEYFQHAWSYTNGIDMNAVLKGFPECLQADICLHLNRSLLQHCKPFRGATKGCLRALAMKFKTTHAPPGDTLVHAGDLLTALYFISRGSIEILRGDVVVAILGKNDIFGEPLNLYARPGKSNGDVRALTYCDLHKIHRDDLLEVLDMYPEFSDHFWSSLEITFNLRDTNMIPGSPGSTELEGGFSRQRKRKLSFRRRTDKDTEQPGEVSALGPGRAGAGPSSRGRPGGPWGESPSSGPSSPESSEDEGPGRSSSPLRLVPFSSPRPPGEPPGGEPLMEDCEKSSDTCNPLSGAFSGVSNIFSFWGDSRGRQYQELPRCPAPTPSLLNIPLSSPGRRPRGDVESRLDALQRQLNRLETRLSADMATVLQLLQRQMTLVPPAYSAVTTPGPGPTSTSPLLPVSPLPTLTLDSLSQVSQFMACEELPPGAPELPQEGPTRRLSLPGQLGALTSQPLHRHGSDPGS

Point of comparison: `Cc1nn(Cc2ccccc2Cl)c(Cl)c1C(=O)NCCc1ccccc1`, “hERG current change (%, negative = inhibition) at 1uM” value 15.1%. Against it:
- COc1ccc(-c2cc3ccc(OC(C)C(=O)O)cc3oc2=O)cc1 (centres unmarked) — lower, 12.3%
- COc1ccc(C(CNC(=O)c2ccc(NS(=O)(=O)c3ccc4c(c3)OCCO4)cc2)N(C)C)cc1 (centres unmarked) — higher, 16.1%
- O=C(CN1CCN(Cc2ccc(Cl)cc2)C1=O)NCCCN1CCN(c2ccc(F)cc2)CC1 — lower, -36.8%
- COc1ccc(CN2CCC(=O)N([C@H](CO)Cc3ccccc3)CC2)cc1OC — lower, 10.1%
- COC(=O)[C@@H](Cc1c[nH]c2ccccc12)NC(=O)CNC(=O)c1ccccc1OC — lower, 11%
- COc1cc(/C=C/C(=O)Nc2cc(C(F)(F)F)ccc2Cl)cc(OC)c1OC — lower, 10.8%
- C/C(=N/Nc1ccccc1C(=O)O)c1cccs1 — higher, 17.5%
- CSc1nnc(-c2ccc(S(=O)(=O)N3CCOCC3)cc2)n1CC1CCCO1 (centres unmarked) — lower, 6.43%
- O=[N+]([O-])c1ccc(-c2ccc(C=Nc3cccc4ccccc34)o2)cc1 — higher, 16.3%
- CC(OC(=O)c1ccc2ccccc2n1)C(=O)Nc1ccc(N2CCOCC2)cc1 (centres unmarked) — lower, -1.4%
- Clc1ccccc1Cn1nnc2c(NCC3CC3)ncnc21 — lower, 4.46%
- CC(C)(C)C(=O)Cn1c(NCCCl)nc2ccccc21.Cl — lower, 13.8%
- Cc1cc(=O)cc(C)n1-c1ccc(Cl)cc1 — lower, 13.2%
- CCN(CC)c1ccc(NC(=O)c2ccco2)c(C)c1 — lower, 0.0417%
- C(=N\c1nc2ccccc2n1CCN1CCOCC1)/c1cccs1 — lower, -7.01%
- Cc1cccc(NC(=O)Nc2ccncc2)c1 — lower, 14.9%
- Cc1nc2c(c(=O)n1CCC1=CCCCC1)c1nc3ccccc3nc1n2/N=C/c1ccco1 — lower, 1.51%
- O=C(Nc1cnc2ccccc2c1)c1ccco1 — lower, 7.85%
- Cc1c(O)ccc2c3c(c(=O)oc12)CCCC3 — lower, 8.37%
- O=C(c1nc2ccccn2c1CNCCCn1nnc2ccccc21)N1CCOCC1 — lower, 4.12%
- CC(C)c1ccccc1NC(=S)NN(Cc1ccccc1)c1ccccc1 — lower, 12.1%
- Cc1cc(Br)ccc1N=C1NC(=O)CS1 — lower, 9.93%
- O=C(CC1Oc2ccccc2NC1=O)NCc1ccccc1 (centres unmarked) — lower, 3.24%
- COc1ccc(C)cc1NC(=O)COC(=O)Cc1ccc(-c2ccccc2)cc1 — lower, 10.7%
- COc1ccc(-c2ccc(C(C)=O)cc2)cc1[C@H]1[C@H]2C=CC[C@@H](C)[C@@H]2C(=O)N1Cc1ccccc1 — lower, 8.82%
- O=[N+]([O-])c1ccc(Cc2ccccn2)c([N+](=O)[O-])c1 — lower, -6.96%
- Cn1c(C(=O)NCCCN2CCc3ccccc3C2)cc2c(=O)n(C)c3ccccc3c21 — lower, -5.66%
- O=C(Cn1cc(C(F)(F)F)ccc1=O)NC1CCCC1 — lower, 10.3%
- C=CCNC(=S)NNC(=O)c1cccn(Cc2cccc(Cl)c2)c1=O — lower, 5.17%
- CC1=C(C#N)C(=O)NC(=O)/C1=C/c1ccc(-c2ccc(S(N)(=O)=O)cc2)o1 — lower, 9.65%
- CC1CCCCC12NC(=O)N(CC(=O)Nc1ccccc1-c1ccccc1)C2=O (centres unmarked) — lower, 3.31%
- CCCN1C2=NS(=O)(=O)CCN2c2ccccc21 — lower, -0.883%
- Cc1ccc(NS(=O)(=O)c2cc(C(=O)N3CCN(C)CC3)ccc2C)cc1C — lower, 6.43%
- CCCCNC(=S)N1CCn2cccc2C1c1ccc(F)cc1 (centres unmarked) — lower, 6.35%
- CC(=O)N1C(=O)N(C)C2C1N(C)C(=O)N2C(C)=O (centres unmarked) — higher, 16.6%
- COc1cc(NC(=O)c2ccc([N+](=O)[O-])o2)ccc1NC(=O)c1ccco1 — higher, 16.7%
- COc1ccc(C)cc1S(=O)(=O)NC(C)C(=O)NC1CC1 (centres unmarked) — lower, 8.45%
- Cc1c(C)c(C)c(/C=[N+](/C)[O-])c(C)c1C — higher, 21.4%
- CCN=C1SC(C(=O)Nc2ccc(Cl)c(Cl)c2)CC(=O)N1CC (centres unmarked) — lower, 6.96%
- CC(C)COc1ccc(C(=O)N(CC(=O)Nc2ccccc2C(F)(F)F)Cc2ccco2)cc1 — lower, -4.53%
- O=C1[C@@H]2C(c3cccnc3)=NO[C@@H]2C(=O)N1c1ccc(Br)cc1 — lower, 11.5%
- COc1ccccc1CCN1CCCC(CN(C)C(=O)c2ccoc2)C1 (centres unmarked) — lower, -0.324%
- CC(NC(=O)Nc1cccc([N+](=O)[O-])c1)c1ccc2c(c1)OCO2 (centres unmarked) — lower, 11.2%
- COc1ccc(NC(C)=O)cc1S(=O)(=O)Nc1ccc(C(=O)N2CCCC2)cc1 — lower, 10.1%
- Clc1ccc(C2CC(c3cccs3)n3ncnc3N2)cc1Cl (centres unmarked) — lower, 5.4%
- Cc1ccc(S(=O)(=O)N(Cc2ccccc2F)C(=O)N2CCN(C)CC2)cc1 — lower, 14%
- CC(C)Oc1ccc(N2C(=O)c3ccccc3C2=O)cc1 — lower, 11%
- Cc1cc(SCC(=O)c2ccccc2)n2ncc(-c3ccccc3)c2n1 — lower, 12.3%
- CCOC(=O)c1c(NC(=O)C(C)Sc2cccc[n+]2[O-])sc2c1CCN(Cc1ccccc1)C2 (centres unmarked) — lower, 1.96%
- O=C(Nc1cc(Br)c(O)c(Br)c1)c1cccc(NC(=O)c2ccco2)c1 — lower, 0.975%
- Cc1cc(C)nc(NS(=O)(=O)c2ccc(NC(=O)C3(c4ccc([N+](=O)[O-])cc4)CCCC3)cc2)n1 — lower, 8.31%
- CCCCCC(C)NC(=S)NC(=O)c1cc(S(=O)(=O)N2CCOCC2)ccc1C (centres unmarked) — lower, 4.22%
- COC(=O)c1ccc(CN2[C@H](C(=O)OC)C[C@@]3(O)[C@@H](O)[C@@H](O)[C@@H](O)C[C@@H]23)cc1 — lower, 9.77%
- COC(=O)c1ccccc1NC(=O)CC(=O)Nc1ccccc1C(=O)OC — lower, 7.96%
- COC(=O)[C@]1(C)CCC[C@@]2(C)C3CC[C@@]4(C)C[C@]3(CCC21)CC(=O)N4C (some centres unmarked) — lower, 7.69%
- O=C(c1cc(-c2cccnc2)nc2ccc(Cl)cc12)N1CCN(S(=O)(=O)c2cccs2)CC1 — lower, 14.6%
- O=C(O)CC1=C(Nc2ccccc2)C(=O)N(c2ccccc2)C1c1ccc(Cl)cc1 (centres unmarked) — lower, 11.1%
- Cc1c(Cl)cccc1NC(=O)CCN1CCN(CCO)CC1.Cl — higher, 19.6%
- O=C(Nc1cccc(C(=O)N2CCN(Cc3ccccc3)CC2)c1)c1ccccc1 — lower, 6.98%
- CC(Cn1cnc2ccccc21)C(=O)O (centres unmarked) — lower, 14.2%
- CN1CCCCCC1=NC1=C(C#N)CCCC1 — lower, 5.1%
- CCOC(=O)c1c(C)[nH]c(C)c1C(=O)COC(=O)c1ccc(O)cc1 — lower, 3.94%
- CCN(C(=O)CSc1nc2nc(C)cc(C)n2n1)c1ccccc1 — lower, 2.61%
- CC(C)NC(=O)NC(=O)CSc1ncc(C(F)(F)F)cc1Cl — lower, 2.44%
- O=C(COC(=O)/C=C/c1ccc(Cl)cc1Cl)Nc1ccc2c(c1)OCCO2 — lower, 12.9%
- O=C(c1ccc(Cl)cc1)C1CCN(CC(=O)N2CCCCC2)CC1 — lower, -5.02%
- CCC(C(=O)NC1CCCCC1)N(C(=O)c1snc(C(N)=O)c1N)c1ccc(OC)cc1OC (centres unmarked) — lower, -2.54%
- Cc1nn(C)c(C)c1NC(=O)c1ccccc1NC(=O)Nc1ccccc1 — lower, 13.3%
- Cc1cc(C)nc(SCC(CSc2nc(C)cc(C)n2)C(=O)O)n1 — lower, 14.3%
- CCOC(=O)C1=C(C)N(C)C(=S)NC1c1ccccc1 (centres unmarked) — lower, 6.83%
- Cc1noc(C)c1COc1ccc(C(=O)Nc2nnc(CC(C)C)s2)cc1 — lower, 11.3%
- CCCc1cc(=O)n2[nH]c(C)c(-c3ccc(Cl)cc3)c2n1 — lower, -11.7%
- CCCCOc1ccc(S(=O)(=O)n2c(C)nc3ccccc32)cc1 — lower, 4.6%
- COc1cc(NC(=O)CSc2ccc(-c3cccnc3)nn2)cc(OC)c1 — lower, 10.8%
- O=C(/C=C/c1ccc([N+](=O)[O-])cc1)NCCN1C(=O)S/C(=C\c2ccc(F)cc2)C1=O — lower, 2.19%
- O=C(O)c1ccc[n+](Cc2ccc([N+](=O)[O-])cc2)c1.[Br-] — lower, 13.7%
- CCc1nccn1S(=O)(=O)c1cc(C)c(OC)cc1C — lower, 3.77%
- O=C(NC1CCCCC1)C(c1ccc(F)cc1)N(Cc1ccco1)C(=O)c1csnn1 (centres unmarked) — lower, 5.88%
- CCN(Cc1ccc(OC)c(F)c1)C(=O)c1oc2ccccc2c1COC — lower, -2.28%
- COc1cc(C(=O)OCCn2c(=O)c3c(ncn3CCN(C)C)n(C)c2=O)cc(OC)c1OC.Cl — lower, 11.1%
- O=C(Nc1ccc(F)cc1F)NC1CCN(Cc2c(F)cccc2Cl)CC1 — lower, 8.67%
- Oc1ccc(-c2[nH]ncc2-c2cnn(-c3ccccc3)c2)c(O)c1 — lower, 7.88%
- CCOc1cc(/C=N/NC(=O)c2ccncc2)ccc1OC(=O)c1ccco1 — lower, -9.82%
- O=C(Cc1ccccc1)NN1CCCCC1 — lower, 10.5%
- c1ccc(-c2cc(-c3nnc4n3N=C(c3ccc5ccccc5c3)CS4)[nH]n2)cc1 — lower, 3.95%
